According to PubChem BioAssay AID2675 (National Center for Advancing Translational Sciences (NCATS), 2010):
The whole screen tested about 280,000 compounds, of which about 100 (0.036%) were called active. This list was built around the results that the source calls inconclusive (neither active nor inactive); the mix of calls is not that of the screen. Calls come from the whole dose curve; as a rule, active = well fitted inhibition curve with a large enough effect in the signal ratio, with a control signal flat (not every such curve was filed as active); inconclusive = small, poorly fitted or top-dose-only effect, or effect the other way, or a change in a side signal; inactive = no such curve, though single readings can be large or run the other way; the % refers to the signal ratio. A potency beside an inconclusive call is a rough fit, not a confirmed value. A note “side channel” means that the fit belongs to a control or component signal, not to the main read-out.

Each compound was assayed against Muscleblind-like protein 1 (Homo sapiens) (UniProt Q9NR56) (assay: qHTS Assay for Inhibitors of MBNL1-poly(CUG) RNA binding). Conditions: TR-FRET MBNL1-His/biotin-(CUG)12 binding, 665/545 ratio; series mostly up to 57.5 µM.
UniProt Q9NR56, sequence (Q9NR56 whole entry, looked up): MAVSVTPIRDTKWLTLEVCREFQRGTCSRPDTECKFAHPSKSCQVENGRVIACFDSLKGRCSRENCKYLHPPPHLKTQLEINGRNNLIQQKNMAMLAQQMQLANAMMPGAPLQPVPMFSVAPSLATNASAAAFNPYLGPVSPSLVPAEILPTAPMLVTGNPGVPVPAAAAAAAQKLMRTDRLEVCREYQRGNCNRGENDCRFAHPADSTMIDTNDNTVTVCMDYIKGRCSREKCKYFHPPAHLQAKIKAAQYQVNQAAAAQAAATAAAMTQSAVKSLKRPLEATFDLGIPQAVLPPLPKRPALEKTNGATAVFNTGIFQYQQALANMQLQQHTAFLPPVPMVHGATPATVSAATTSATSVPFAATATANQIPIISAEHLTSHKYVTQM
Summary of the method: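 Compound titration spanned 92 nM–58 uM against the MBNL1-His/biotin-(CUG)12 complex. After 60 min at room temperature with 5 nM streptavidin-XL665 and 0.055 ng/ul terbium anti-His, ratiometric 665/545 nm emission (Ex 340 nm) normalized to controls.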
Potency is the fitted concentration of half-maximal effect; tags give direction and shape of the fitted curve or compound fluorescence and quenching.

Row | SMILES | Potency
1 | COc1ccc(OC)c(S(=O)(=O)Nc2ccc(O)c3ccccc23)c1 | inconclusive: 25.1 µM [quencher, side channel, partial curve]
2 | O=C(O)CCCn1c(=S)[nH]c2c(sc3ccc([N+](=O)[O-])cc32)c1=O | inconclusive: 35.5 µM [quencher, side channel, single point]
3 | COc1cc(N=Cc2c(O)[nH]c3ccccc23)cc(OC)c1OC | inconclusive: 6.31 µM [quencher, side channel, partial curve]
4 | CC(=O)c1ccc(NC(=O)c2ccc([N+](=O)[O-])o2)cc1 | inconclusive: 10 µM [quencher, partial curve]
5 | COC(=O)c1ccc(NC(=O)CCN2CCCCC2)cc1 | inconclusive: 8.91 µM [quencher, side channel, single point]
6 | Cc1ccc(S(=O)(=O)Oc2ccccc2/C=N/NC(=O)c2nn(C)cc2[N+](=O)[O-])cc1 | inconclusive: 17.8 µM [activator, partial curve]
7 | O=C(NCC(=O)N(c1cnc2ccccc2c1)C(C(=O)NC1CCCC1)c1ccncc1)c1ccco1 (stereo not given) | inconclusive: 8.91 µM [quencher, side channel, single point]
8 | CCN(CC)CC(O)Cn1c(-c2ccccc2Cl)nc2ccccc21 (stereo not given) | inactive
9 | O=C(/C=C/c1ccccc1[N+](=O)[O-])Nc1cccnc1 | inconclusive: 3.16 µM [quencher, side channel, single point]
10 | CCCCC1NC(C(=O)O)CS1 (stereo not given) | inactive
11 | CC(NC(=O)C12CC3CC(CC(C3)C1)C2)C(=O)N/N=C/C1=C(N2CCOCC2)C(=C\c2ccccc2)/CC1 (stereo not given) | inconclusive: 0.708 µM [quencher, side channel, full curve, poor fit]
12 | CCOC(=O)c1c(-c2ccc(OC)cc2)csc1/N=C/C1=C(O)CCCC1=O | inconclusive: 15.8 µM [quencher, side channel, partial curve]
13 | Cc1ccc([N+](=O)[O-])cc1NC(=O)CSc1nnc(C)n1CC1CCCO1 (stereo not given) | inconclusive: 25.1 µM [quencher, side channel, single point]
14 | O=C1CCCc2oc3c(cc(NS(=O)(=O)c4ccc5c6c(cccc46)C(=O)N5)c4ccccc43)c21 | inconclusive: 39.8 µM [quencher, side channel, single point]
15 | CC(=O)COc1ccc2c(-c3cccc([N+](=O)[O-])c3)cc(=O)oc2c1 | inconclusive: 15.8 µM [quencher, side channel, partial curve]
16 | O=C(CN1CCOCC1)N/N=C/c1cc2ccccc2nc1Cl | inconclusive: 0.158 µM [quencher, side channel, full curve, poor fit]
17 | CCOc1ccc(C(=O)O/N=C(\N)c2ccc([N+](=O)[O-])cc2)cc1OCC | inconclusive: 0.501 µM [quencher, side channel, single point]
18 | Oc1ccc(Br)cc1C=Nc1cccn2cc(-c3ccccc3)nc12 | inconclusive: 14.1 µM [quencher, side channel, partial curve]
19 | COc1ccc2nc(/N=C(\N)NC(=O)Nc3ccccc3)nc(C)c2c1 | inconclusive: 39.8 µM [quencher, side channel, single point]
20 | Cc1ccc2nsnc2c1NC(=O)c1ccc2c(c1)OCCO2 | inconclusive: 28.2 µM [quencher, side channel, single point]
21 | Oc1ccc(Cl)cc1-c1cc(-c2cccc(Br)c2)n[nH]1 | inactive
22 | Cc1ccc(-c2nnc(Nc3ccc(OCC(N)=O)cc3)c3ccccc23)cc1S(N)(=O)=O | inconclusive: 28.2 µM [quencher, side channel, partial curve]
23 | O=[N+]([O-])c1cccc(-c2nnc3n2CCCCC3)c1 | inconclusive: 14.1 µM [quencher, side channel, partial curve]
24 | O=[N+]([O-])c1ccc(N2CCCCCC2)c([N+](=O)[O-])c1 | inconclusive: 28.2 µM [quencher, side channel, partial curve]
25 | COc1cc(CNCc2ccccn2)ccc1OCc1ccc(Cl)cc1 | inconclusive: 0.126 µM [fluorescent, side channel, partial curve]
26 | COc1ccccc1NC(=O)c1cc([N+](=O)[O-])ccc1N1CCOCC1 | inconclusive: 15.8 µM [quencher, partial curve]
27 | Cc1ccc(-n2ncc(C(=O)N3CCc4ccccc4C3)c2NC(=O)c2ccco2)cc1C | inconclusive: 39.8 µM [quencher, side channel, single point]
28 | Cc1c(C(=O)c2ccc(Cl)cc2Cl)cnc2cc3c(cc12)OCO3 | inconclusive: 8.91 µM [quencher, side channel, single point]

Row | SMILES | Potency
29 | CC(=O)c1sc(-c2ccc(Cl)cc2)nc1C | inconclusive: 10 µM [quencher, side channel, partial curve]
30 | N#Cc1c(SCC(=O)Nc2nccs2)sc2c(O)cc(=O)[nH]c12 | inconclusive: 28.2 µM [quencher, side channel, single point]
31 | Cc1ccc(-n2c(=O)c(C#N)cc3c(=O)n4ccccc4nc32)cc1 | inconclusive: 1.26 µM [quencher, side channel, single point]
32 | O=C(NN1C(=O)c2ccccc2NC1c1cccnc1)c1ccc([N+](=O)[O-])cc1 (stereo not given) | inconclusive: 14.1 µM [quencher, side channel, partial curve]
33 | COc1ccc(C2(CNC(=O)c3cc([N+](=O)[O-])cc([N+](=O)[O-])c3)CCCC2)cc1OC | inconclusive: 20 µM [quencher, side channel, partial curve]
34 | N#Cc1cc2c(=O)n3ccccc3nc2n(-c2ccccc2Cl)c1=O | inconclusive: 15.8 µM [quencher, side channel, partial curve]
35 | O=C(N/N=C/c1cccc([N+](=O)[O-])c1)c1ccccc1-n1cccc1 | inconclusive: 14.1 µM [quencher, side channel, partial curve]
36 | COc1ccc(C(=O)Nn2c(C)nc3ccccc3c2=O)cc1[N+](=O)[O-] | inconclusive: 17.8 µM [quencher, side channel, single point]
37 | O=C(N/N=C/c1ccc2c(c1)OCO2)c1ccc2ccccc2n1 | inconclusive: 35.5 µM [quencher, side channel, single point]
38 | O=[N+]([O-])c1ccc(N2CCN(S(=O)(=O)c3cnc[nH]3)CC2)cc1 | inconclusive: 11.2 µM [quencher, side channel, partial curve]
39 | Cc1cc(C(=O)N/N=C/c2ccc3c(c2)OCO3)c(C)o1 | inconclusive: 22.4 µM [quencher, side channel, partial curve]
40 | COc1ccc(/C=C/C(=O)Nc2ccc(NC(C)=O)cc2)cc1S(=O)(=O)N1CCOCC1 | inconclusive: 7.08 µM [quencher, side channel, partial curve]
41 | COc1ccc(/C=C2\SC(=S)N(CCC(=O)Nc3ccc(C(=O)O)cc3)C2=O)cc1 | inactive
42 | Cc1ccc(OCC(=O)N/N=C\c2c(C)[nH]n(-c3ccccc3)c2=O)c([N+](=O)[O-])c1 | inactive
43 | CN(C)C(=O)c1cn(-c2ccccc2)nc1-c1cccc([N+](=O)[O-])c1 | inconclusive: 25.1 µM [quencher, side channel, single point]
44 | O=C(c1ccc([N+](=O)[O-])c(CS(=O)(=O)c2ccc(Cl)cc2)c1)N1CCCC1 | inconclusive: 28.2 µM [quencher, partial curve]
45 | CCC(C)(C)n1nnnc1C(c1cc2cc(OC)c(OC)cc2[nH]c1=O)N1CCc2ccccc21 (stereo not given) | inconclusive: 25.1 µM [quencher, side channel, single point]
46 | COC(=O)c1cccc2c1-c1ccccc1/C2=N/O | inconclusive: 20 µM [quencher, side channel, partial curve]
47 | O=[N+]([O-])c1ccc2c(c1)c1ccccc1n2CCO | inconclusive: 25.1 µM [quencher, side channel, partial curve]
48 | CCCc1[nH]nc2c1C(c1ccncc1)C(C#N)=C(N)O2 (stereo not given) | inconclusive: 31.6 µM [quencher, side channel, single point]
49 | Cc1ccc(S(=O)(=O)ON2C(=O)c3ccccc3C2=O)c(C)c1 | inconclusive: 126 µM [inhibitor, partial curve]
50 | O=c1cc(CN2CCCc3ccccc32)nc2sccn12 | inconclusive: 22.4 µM [quencher, side channel, single point]
51 | CCCn1c(-c2cc(OC)c(OC)c(OC)c2)nc2nc3ccccc3nc21 | inconclusive: 17.8 µM [quencher, side channel, partial curve]
52 | CC1(C)Oc2ccc3ccc(=O)oc3c2/C(=C/NNC(N)=S)C1=O | inconclusive: 31.6 µM [quencher, single point]
53 | COc1ccc2oc(-c3ccco3)cc(=O)c2c1 | inconclusive: 11.2 µM [quencher, side channel, partial curve]
54 | O=C(O)C1CCN(c2ccc([N+](=O)[O-])cc2[N+](=O)[O-])CC1 | inconclusive: 7.08 µM [quencher, side channel, partial curve]
55 | COc1ccc(C(=O)Nc2sc(C(=O)N(C)C)c(C)c2C#N)cc1[N+](=O)[O-] | inconclusive: 3.16 µM [quencher, side channel, partial curve, poor fit]
